Assay results from the supplement of paper PMC4967469.
Lines with a small IC50 respond at low doses; a limit (>, <) means that the fit lies beyond the doses tested. The AUC spans the tested range (256-fold, ending at the top dose) of the same fit; values near 1 show little effect. For some of these results: An inferred top dose is not printed in the source and was worked back from the curve model.

Columns and labels:
Assay in all cases: Viability of human cancer cell lines after 72 h of drug (GDSC screen)
XL-880 = compound: COc1cc2c(Oc3ccc(NC(=O)C4(C(=O)Nc5ccc(F)cc5)CC4)cc3F)ccnc2cc1OCCCN1CCOCC1 [XL-880]; details: top dose 5.12 µM; top dose inferred
Experimental: (§1)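 Human cancer cell lines in 384-well plates, medium with 10% serum, drug for 72 h over a 256-fold dose range (nine 2-fold or five 4-fold steps up to the top dose). Adherent lines were fixed and stained with the nucleic acid dye Syto60, suspension lines read with resazurin; signal relative to control wells, capped at 0 and 100%. One two-parameter sigmoid per drug and line, fitted in a mixed model over all curves with the slope shared within a line.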

Temozolomide = compound: Cn1nnc2c(C(N)=O)ncn2c1=O [Temozolomide]; details: top dose 30 µM
Experimental: as §1

CI-1040 = compound: O=C(NOCC1CC1)c1ccc(F)c(F)c1Nc1ccc(I)cc1Cl [CI-1040]; details: top dose 10 µM; top dose inferred
Experimental: as §1

ZG-10 = compound: CN(C)C/C=C/C(=O)Nc1ccc(C(=O)Nc2cccc(Nc3nccc(-c4cccnc4)n3)c2)cc1 [ZG-10]; details: top dose 10 µM; top dose inferred
Experimental: as §1

Tubastatin A = compound: CN1CCc2c(c3ccccc3n2Cc2ccc(C(=O)NO)cc2)C1 [Tubastatin A]; details: top dose 20 µM
Experimental: as §1

IPA-3 = compound: Oc1ccc2ccccc2c1SSc1c(O)ccc2ccccc12 [IPA-3]; details: top dose 32 µM; top dose inferred
Experimental: as §1

Row | Cell Line | AUC (XL-880) | IC50 (XL-880) | AUC (Temozolomide) | IC50 (Temozolomide) | AUC (CI-1040) | IC50 (CI-1040) | AUC (ZG-10) | IC50 (ZG-10) | AUC (Tubastatin A) | IC50 (Tubastatin A) | AUC (IPA-3) | IC50 (IPA-3)
1 | NY (osteosarcoma, adherent) | 0.88 | > 5.12 µM | 0.987 | > 30 µM | 0.899 | > 10 µM | 0.685 | 2.05 µM | 0.989 | > 20 µM | 0.877 | 31.6 µM
2 | HCT-15 (large intestine, adherent) | 0.671 | 0.988 µM | 0.984 | > 30 µM | 0.91 | > 10 µM | 0.985 | > 10 µM | 0.975 | > 20 µM | 0.84 | 24.1 µM
3 | SNU-387 (liver, adherent) | 0.477 | 0.275 µM | 0.978 | > 30 µM | 0.703 | 2.54 µM | 0.715 | 2.79 µM | 0.983 | > 20 µM | 0.895 | > 32 µM
4 | JIMT-1 (breast, adherent) | 0.852 | 4.43 µM | 0.981 | > 30 µM | 0.846 | 8.16 µM | 0.914 | > 10 µM | 0.984 | > 20 µM | 0.853 | 28 µM
5 | 8305C (thyroid, adherent) | 0.879 | > 5.12 µM | 0.977 | > 30 µM | 0.734 | 3.63 µM | 0.855 | > 10 µM | 0.982 | > 20 µM | 0.687 | 7.94 µM
6 | D-542MG (glioma, adherent) | 0.71 | 1.45 µM | 0.982 | > 30 µM | 0.984 | > 10 µM | 0.781 | 5.15 µM | 0.966 | > 20 µM | 0.811 | 21.9 µM
7 | COR-L23 (large cell lung carcinoma, adherent) | 0.797 | 2.35 µM | 0.953 | > 30 µM | 0.862 | 8.15 µM | 0.841 | 6.67 µM | 0.921 | > 20 µM | 0.709 | 7.65 µM
8 | HCC1937 (breast, adherent) | 0.842 | 4.43 µM | 0.983 | > 30 µM | 0.869 | > 10 µM | 0.848 | 9.25 µM | 0.978 | > 20 µM | 0.821 | 22.3 µM
9 | H2869 (mesothelioma, adherent) | 0.6 | 0.642 µM | 0.982 | > 30 µM | 0.946 | > 10 µM | 0.886 | > 10 µM | 0.93 | > 20 µM | 0.918 | > 32 µM
10 | PCI-30 (head and neck, adherent) | 0.779 | 2.58 µM | 0.983 | > 30 µM | 0.917 | > 10 µM | 0.731 | 3.35 µM | 0.983 | > 20 µM | 0.985 | > 32 µM
11 | HT-115 (large intestine, adherent) | 0.874 | 4.22 µM | 0.991 | > 30 µM | 0.941 | > 10 µM | 0.964 | > 10 µM | 0.989 | > 20 µM | 0.983 | > 32 µM
12 | MDA-MB-415 (breast, adherent) | 0.983 | > 5.12 µM | 0.979 | > 30 µM | 0.931 | > 10 µM | 0.788 | 6.09 µM | 0.982 | > 20 µM | 0.972 | > 32 µM
13 | HT-1197 (bladder, adherent) | 0.866 | > 5.12 µM | 0.966 | > 30 µM | 0.918 | > 10 µM | 0.969 | > 10 µM | 0.973 | > 20 µM | 0.737 | 10.9 µM
14 | MOG-G-CCM (glioma, adherent) | 0.539 | 0.415 µM | 0.979 | > 30 µM | 0.837 | 8.31 µM | 0.712 | 2.77 µM | 0.918 | > 20 µM | 0.882 | > 32 µM
15 | HSC-4 (head and neck, adherent) | 0.766 | 2.51 µM | 0.947 | > 30 µM | 0.381 | 0.264 µM | 0.543 | 0.853 µM | 0.978 | > 20 µM | 0.862 | > 32 µM
16 | NCI-H1792 (lung adenocarcinoma, adherent) | 0.741 | 1.43 µM | 0.988 | > 30 µM | 0.814 | 4.8 µM | 0.982 | > 10 µM | 0.99 | > 20 µM | 0.986 | > 32 µM
17 | EN (endometrium, adherent) | 0.662 | 1.02 µM | 0.975 | > 30 µM | 0.94 | > 10 µM | 0.77 | 4.84 µM | 0.932 | > 20 µM | 0.984 | > 32 µM
18 | NCI-H2122 (lung adenocarcinoma, adherent) | 0.891 | > 5.12 µM | 0.987 | > 30 µM | 0.828 | 5.63 µM | 0.781 | 3.88 µM | 0.986 | > 20 µM | 0.818 | 16.6 µM
19 | LOU-NH91 (lung squamous cell carcinoma, adherent) | 0.726 | 1.5 µM | 0.985 | > 30 µM | 0.93 | > 10 µM | 0.679 | 2.07 µM | 0.981 | > 20 µM | 0.986 | > 32 µM

Row | Cell Line | AUC (XL-880) | IC50 (XL-880) | AUC (Temozolomide) | IC50 (Temozolomide) | AUC (CI-1040) | IC50 (CI-1040) | AUC (ZG-10) | IC50 (ZG-10) | AUC (Tubastatin A) | IC50 (Tubastatin A) | AUC (IPA-3) | IC50 (IPA-3)
20 | LC-1-sq (lung squamous cell carcinoma, adherent) | 0.848 | 4.86 µM | 0.983 | > 30 µM | 0.885 | > 10 µM | 0.983 | > 10 µM | 0.954 | > 20 µM | 0.985 | > 32 µM
21 | EPLC-272H (lung squamous cell carcinoma, adherent) | 0.5 | 0.319 µM | 0.975 | > 30 µM | 0.781 | 4.7 µM | 0.604 | 1.25 µM | 0.852 | 18.6 µM | 0.859 | > 32 µM
22 | DMS-53 (small cell lung carcinoma, adherent) | 0.955 | > 5.12 µM | 0.983 | > 30 µM | 0.981 | > 10 µM | 0.971 | > 10 µM | 0.981 | > 20 µM | 0.987 | > 32 µM
23 | RC-K8 (B-cell lymphoma, suspension) | 0.872 | 3.8 µM | 0.99 | > 30 µM | 0.989 | > 10 µM | 0.912 | > 10 µM | 0.99 | > 20 µM | 0.943 | > 32 µM
24 | JHU-029 (head and neck, adherent) |  |  | 0.958 | > 30 µM | 0.767 | 4.55 µM | 0.56 | 0.947 µM |  |  | 0.715 | 9.46 µM
25 | H290 (mesothelioma, adherent) |  |  | 0.988 | > 30 µM | 0.878 | 8.66 µM | 0.824 | 5.3 µM |  |  | 0.852 | 21.6 µM
26 | SW620 (large intestine, adherent) | 0.666 | 0.874 µM | 0.949 | > 30 µM | 0.562 | 0.901 µM | 0.799 | 4.18 µM |  |  | 0.731 | 8.28 µM
27 | DMS-273 (small cell lung carcinoma, adherent) | 0.461 | 0.249 µM |  |  | 0.913 | > 10 µM | 0.723 | 2.8 µM | 0.954 | > 20 µM | 0.856 | 28.2 µM
28 | KYSE-140 (oesophagus, adherent) | 0.631 | 0.774 µM |  |  | 0.892 | > 10 µM | 0.712 | 2.71 µM | 0.983 | > 20 µM | 0.766 | 13.3 µM
29 | STS-0421 (soft tissue, adherent) |  |  | 0.97 | > 30 µM | 0.939 | > 10 µM | 0.613 | 1.35 µM |  |  | 0.954 | > 32 µM
30 | MKN28 (stomach, adherent) | 0.687 | 1.09 µM |  |  | 0.863 | 9.02 µM | 0.676 | 1.97 µM | 0.965 | > 20 µM | 0.843 | 23.4 µM
31 | TT2609-C02 (thyroid, adherent) |  |  | 0.985 | > 30 µM | 0.478 | 0.542 µM | 0.862 | 9.47 µM | 0.917 | > 20 µM | 0.731 | 9.55 µM
32 | AU565 (breast, adherent) | 0.864 | > 5.12 µM |  |  | 0.911 | > 10 µM | 0.726 | 2.97 µM | 0.962 | > 20 µM | 0.79 | 16 µM
33 | AGS (stomach, adherent) | 0.719 | 1.23 µM |  |  | 0.594 | 1.1 µM | 0.643 | 1.48 µM | 0.989 | > 20 µM | 0.806 | 14.3 µM
34 | IGR-1 (melanoma, adherent) | 0.594 | 0.559 µM |  |  | 0.932 | > 10 µM | 0.705 | 2.17 µM | 0.887 | 17.6 µM | 0.836 | 17.7 µM
35 | PFSK-1 (medulloblastoma, adherent) | 0.731 | 1.53 µM |  |  | 0.931 | > 10 µM | 0.552 | 0.876 µM | 0.96 | > 20 µM | 0.974 | > 32 µM
36 | HCC-78 (lung adenocarcinoma, adherent) |  |  | 0.98 | > 30 µM | 0.963 | > 10 µM | 0.748 | 3.72 µM | 0.941 | > 20 µM | 0.927 | > 32 µM
37 | HCC2998 (large intestine, adherent) | 0.845 | 3.56 µM |  |  | 0.6 | 1.17 µM | 0.602 | 1.18 µM | 0.981 | > 20 µM | 0.893 | > 32 µM
38 | SCC90 (head and neck, adherent) |  |  | 0.961 | > 30 µM | 0.736 | 4.01 µM | 0.733 | 3.89 µM |  |  | 0.935 | > 32 µM
